Reference: ChEMBL document CHEMBL1156829
The full ranking holds about 5,400 compounds; the median of “IFI” is about 2, and the highest 2% start at about 22. The list shows a part of the results.

Assay: NOVARTIS: Inhibition Frequency Index (IFI) - the number of HTS assays where a compound showed > 50% inhibition/induction, expressed as a percentage of the number of assays in which the compound was tested.
Assay type: functional

| Compound | IFI [%] |
| --- | --- |
| COc1cc(NC(C)=C2C(=O)c3ccccc3C2=O)c(OC)cc1Cl | 0 |
| Cc1ccc[n+](C(C)C(=O)c2ccc(-c3ccccc3)cc2)c1 (stereo unspecified) | 0 |
| CN(CCCNc1ccnc2cc(Cl)ccc12)C(=O)CC(C)(C)C | 7.48 |
| CCOC(=O)c1ccc(Nc2nc(N)c3cc(OC)c(OC)cc3n2)cc1 | 0 |
| COc1cc(C(=O)N2CCN(Cc3cccc(Br)c3)CC2)cc(OC)c1OC | 1.12 |
| COc1cccc(C(=O)N(CCCC(C)Nc2cc(OC)cc3cccnc23)Cc2ccc(F)cc2)c1 (stereo unspecified) | 2.8 |
| Cc1ccc(-c2c3c(nc4sc(C(=O)Nc5ccc(F)cc5)c(N)c24)CCC3)cc1 | 7.14 |
| N#C/C(=C\c1cn(Cc2ccccc2Cl)c2ccccc12)c1nn(CCO)c(N)c1C#N | 0 |
| CC(C)(C)OC(=O)N1CCC(c2c(C(=O)Nc3cccc(C(F)(F)F)c3)cnn2-c2ccc(F)cc2F)CC1 | 0 |
| CCN(CC)CCCC(C)Nc1nc(/C=C/c2ccc(Br)cc2)nc2cc(Cl)ccc12 (stereo unspecified) | 3.97 |
| O=C(Nc1ccc(NC2=NCCN2)cc1)c1ccc(C(=O)Nc2ccc(NC3=NCCN3)cc2)cc1 | 2.61 |
| Oc1cccc2ccc(Nc3ccccn3)nc12 | 15.2 |
| CC[n+]1c(/C=C2\C=Cc3cc(C)ccc3N2C)ccc2cc(C)ccc21 | 15.4 |
| COc1cccc(-c2ccc(O)c(CNCCc3cccc(F)c3)c2)n1 | 0.901 |
| COc1ccc(C2C(C(=O)Nc3ccc(OC)c(OC)c3)CCC(=O)N2c2ccc(OC)cc2)cc1 (stereo unspecified) | 0 |
| COc1ccc(OCC(=O)Nc2cccc(NC(=O)COc3ccc(OC)cc3)n2)cc1 | 0 |
| CCCOc1ncnc2c1sc1nc3c(cc12)COC(C)(C)C3 | 1.8 |
| CCOc1ccc(-n2nc(C(=O)NCCCN(C)Cc3ccccc3)c3ccccc3c2=O)cc1 | 2.63 |
| C=CCn1c(=O)c(C(=O)NCC[N+](CC)(CC)CC=C)c(O)c2ccccc21 | 0 |
| CO[C@H]1[C@@H](C)[C@@H]([C@H](C)C2O[C@@]3(CC[C@@](C)([C@H]4CC[C@@](C)([C@@H]5O[C@@H]([C@H]6O[C@](C)(O)[C@H](C)C[C@@H]6C)C[C@@H]5C)O4)O3)C[C@H](O)[C@@H]2C)O[C@@](O)([C@H](C)C(=O)O)[C@H]1C (stereo partly specified) | 6.35 |
| COc1ccc(OC)c(-c2ccc(O)c(CNCCc3cccc(F)c3)c2)c1 | 1.92 |

| Compound | IFI [%] |
| --- | --- |
| C[n+]1c2ccccc2nc2ccc(NCCc3cnc[nH]3)cc21 | 15.4 |
| O=C(CS(=O)(=O)c1ccc(C(F)(F)F)cn1)NNS(=O)(=O)c1ccc(Cl)cc1 | 0.909 |
| COc1ccc(C=NNc2nc3ccccc3[nH]2)cc1OC | 7.69 |
| CC(C)(C)CC(C)(C)Nc1c(-c2ccccc2OC(=O)c2ccc(C(F)(F)F)cc2)nc2ccccn12 | 3.81 |
| COC(=O)CNC(=O)c1sc2ncn(CC(=O)Nc3ccccc3OC)c(=O)c2c1C | 0 |
| CCc1cccc(NC(=O)CCCn2c(=O)c3cccn3c3ccccc32)c1 | 3.7 |
| CCCC(=O)O[C@]1(C(=O)CCl)[C@@H](C)C[C@H]2[C@@H]3CCC4=CC(=O)C=C[C@]4(C)[C@@]3(F)C(=O)C[C@@]21C | 2.72 |
| COC(=O)c1c(NC(=O)c2c(-c3ccccc3)noc2C)sc2c1CCC2 | 1.45 |
| Fc1ccccc1Nc1nc(NCC2CCCO2)c2ccccc2n1 (stereo unspecified) | 0 |
| CN(C)CCCNC(=O)c1ccc(-c2cncc(-c3cccc(O)c3)n2)cc1 | 4.17 |
| CCc1c(C)nc(SCC(=O)NNC(C)=O)nc1O | 1.61 |
| CC(=O)Nc1cc(C(=O)Nc2ccc(C3=NCCN3)cc2)ccc1C(=O)Nc1ccc(C2=NCCN2)cc1 | 0 |
| COc1ccc(-c2csc(Nc3ccc(O)cc3)n2)cc1OC | 0 |
| CCOc1ccc(C(=O)CN2C(=O)c3ccccc3OC(C(C)C)C2=O)cc1[N+](=O)[O-] (stereo unspecified) | 0 |
| Cc1ccc(NC2=C(N3CCCCC3)C(=O)c3ccccc3C2=O)cc1 | 3.91 |
| O[C@@H]1[C@H]2c3cc4c(cc3CN3CCC(=C[C@@H]1O)[C@H]23)OCO4 | 10.6 |
| BrC(Br)(Br)c1ncc(-c2ccccc2)cn1 | 7.14 |
| Cc1cc(C)n(N=Cc2cccc(Cl)c2)c(=O)c1C#N | 0 |
| C=CCN1CCN(C(c2ccccc2F)c2nnnn2Cc2ccco2)CC1 (stereo unspecified) | 0 |
| O=C(OC(C(=O)NCc1ccco1)c1ccc(F)cc1)c1ccco1 (stereo unspecified) | 5.56 |
| COc1ccc(Cl)cc1NC(=O)C1c2ccccc2C(=O)N(CC(C)C)C1c1cccs1 (stereo unspecified) | 9.09 |

| Compound | IFI [%] |
| --- | --- |
| O=C(NCc1ccccc1)c1cnc(NCCCN2CCCC2)nc1NCCc1ccccc1 | 1.91 |
| O=c1c2cnn(-c3ccccc3)c2nc(-c2ccccc2F)n1-c1ccc(Br)cc1 | 2.25 |
| CC[n+]1c(/C=C2\Sc3ccc(OC)cc3N2C)ccc2cc(C)ccc21 | 14.3 |
| C[n+]1oc(/C=C/c2ccccc2)cc1/C=C/c1ccccc1 | 19.4 |
| O=C(c1cccs1)N(Cc1cccs1)c1ccc([N+](=O)[O-])cc1 | 1.96 |
| CCN(CC)CCNc1ncnc2c1[nH]c1ccc(Br)cc12 | 5.66 |
| Cc1cc(N2CCC(N(C)C3CCCC3)CC2)nc2cc(O)ccc12 | 4.54 |
| O=C(COc1ccc(Cl)cc1)N1CCCn2cccc2C1c1ccc(Cl)cc1 (stereo unspecified) | 0.971 |
| CC(=O)Nc1nc(C)c(-c2csc(Nc3ccc(Cl)cc3)n2)s1 | 5.81 |
| COc1ccccc1-n1c(C(C)N2CCN(C(=O)c3cc([N+](=O)[O-])cc([N+](=O)[O-])c3)C(C)C2)nc2ccccc2c1=O (stereo unspecified) | 1.87 |
| O=c1c2sccc2nc(SCc2cc(=O)n3ccccc3n2)n1Cc1ccccc1 | 0 |
| CCCC(=O)NC(C(=O)N1CCN(C(c2ccccc2)c2ccccc2)CC1)C(C)C (stereo unspecified) | 0.943 |
| CCOC(=O)c1cnc2c3c(ccc2c1O)CCCC3 | 2.22 |
| CCN1CCN(C(=O)CS(=O)(=O)Cc2nc(-c3cccc(OC)c3)oc2C)CC1 | 0 |
| COc1cc(C2C3=C(CC(C)(C)CC3=O)Nc3ccccc3N2C(=O)C(C)C)cc(OC)c1OC (stereo unspecified) | 0 |
| O=C(NCc1ccco1)c1cccc(Cl)c1Cl | 0 |
| CC1CCCCN1CCCNc1ncc(C(=O)NCc2ccccc2)c(NCCc2ccccc2)n1 (stereo unspecified) | 3.92 |
| CN1C=CC=C/C1=C\C=C1\C=Nc2ccccc21 | 7.14 |
| CC1=C(CC(=O)c2cccc([N+](=O)[O-])c2)C(=O)c2ccccc2C1=O | 2.44 |
